System: conjugated ubiquitin
Assay: Relative fluorescence intensity of Atto532-tISR L1 Cys2 on addition of conjugated ubiquitin
Format: binding
Settings: same concentrations (0-1000 nM) of conjugated ubiquitin
Description: In this chimeric polypeptide sensor, the L1 Cys2, the linker between the IsoT^ZnF and the UIM, has a Cys conjugated with the fluorophore. Relative fluorescence intensity of Atto532-tISR L1 Cys2 is shown with different concentrations of free ubiquitin proteins (triangles) or conjugated ubiquitin proteins.
Another chimeric polypeptide sensor, Atto532-tISR L1 Cys2, was constructed. This chimeric polypeptide comprises three binding domains. […] In this chimeric polypeptide sensor, L1 Cys2 is the linker between the IsoT^ZnF and the UIM and has a Cys residue conjugated with the fluorophore. Relative fluorescence intensity of Atto532-tISR L1 Cys2 was measured following the addition of different concentrations of free ubiquitin proteins or conjugated ubiquitin proteins. […] There was little change in fluorescence intensity across the same concentrations of conjugated ubiquitin.

B1: Atto532-tISR L1 Cys2: tISR sensor with three binding domains; Cys in linker between IsoT ZnF and UIM conjugated with Atto532 (conjugate)
chain: MPSSHHHHHHSSGLVPRGSHMKQEVQAWDGEVRQVSKHAFSLKQLDNPARIPPSGWKCSKCDMRENLWLNLTDGSILCGRRYWDGSGGNNHAVEHYRETGYPLAVKLGTITPDGADVWSYDEDDMVLDPSLAEHLSHFGIDMLKMQKGSCAAEEAEEQIAYAMQMSLREAGGGSDLLCKKGCGYYGNPAWQGFCSKCWREEAHKAAQK
change in fluorescence intensity with conjugated ubiquitin: little change

Source: patent publication US11630109B2, “Sensors and assays for ubiquitin or ubiquitin-like proteins” (Colorado State University Research Foundation, priority 2013, dated 2023)
